In the supplement of paper PMC10126150 one finds switch fluorescence ratio data, which are given here for 120 sequences.

Sequences with one replicate were seen in a single cluster, so their values are uncertain.

This data set has as its system ATP. Put plainly: switch fluorescence ratio, 500 uM ATP over buffer (Cy3 cluster intensity, sum of 5 cycles each) (fold (ratio)); higher = stronger signal-on switching upon ATP binding; sequences stand for … in TCGTCGGCAGCGTCAGATGTGTATAAGAGACAGTTTTTTTTTTTTTTTTTTTTTTTTT…TC. The note with it: aptamer strand: ATP DNA aptamer (quencher-CACCTGGGGGAGTATTGCGGAGGAAGG + anchor), 100 nM annealed; ATP concentration: 500 uM; one replicate. An outline of the steps: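 Per cluster, summed Cy3 intensity from the target cycles was divided by that from the buffer cycles to give the fluorescence ratio, then averaged per switch-domain sequence. Clusters outside 100-1000 RFU were excluded. The Cy3-labelled switching-strand clusters, on a modified Illumina MiSeq flow-cell, were annealed to 100 nM quencher-labelled ATP aptamer and imaged in selection buffer, then after 15 min with 500 uM ATP at 22 °C, for five cycles with NaOH stripping and re-annealing between them.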
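Also: ATP exposure 15 min at 22 °C before imaging.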

For CCGACTGGCG, the switch fluorescence ratio was found to be 1.14.

On to GAATATTAAA, for which the switch fluorescence ratio was 0.976.

In the case of ACCCCCCAGT, the switch fluorescence ratio was 1.19.

AATTAGGGCG: the switch fluorescence ratio was 1.04.

For GAGCTTGGTT, the switch fluorescence ratio was 0.998.

In the case of AAAGTTCTGT, the switch fluorescence ratio amounted to 1.01.

With CGTATGTCGG, the switch fluorescence ratio was determined as 0.91.

In the case of GTTCTATGTA, the switch fluorescence ratio worked out at 1.02.

For the sequence CATGAGCATG, the switch fluorescence ratio turned out to be 1.07.

Take TCGCTAGGC: the switch fluorescence ratio is 1.8.

TGACATGTGT: the switch fluorescence ratio turned out to be 0.982.

For the sequence TATGTGAATT, the switch fluorescence ratio is 0.993.

Turning to TCTAGCGAGG, the switch fluorescence ratio came to 1.

With AGACCTAATT, the switch fluorescence ratio is 1.02.

On to CGCTATATAT, for which the switch fluorescence ratio was found to be 1.29.

Regarding TGTTCATTCT, the switch fluorescence ratio stood at 0.997.

Turning to ATAATACCTA, the switch fluorescence ratio stood at 1.

Regarding AATCGGCTGT, the switch fluorescence ratio was 1.01.

As for GCTGGGCGCT, the switch fluorescence ratio is 0.972.

AAGTGTTTAA: the switch fluorescence ratio stood at 0.954.

As to TTTAGGTACA, the switch fluorescence ratio came out at 0.993.

Take GGCTGGAGGA: the switch fluorescence ratio was 1.02.

In the case of GCGCGTTGTA, the switch fluorescence ratio worked out at 1.01.

On to AAGTGACCCA, for which the switch fluorescence ratio came to 1.04.

Take CGATGGGCGG: the switch fluorescence ratio was 0.962.

Take ATTTTTGGAT: the switch fluorescence ratio was 0.979.

Turning to AGGAGAATGG, the switch fluorescence ratio worked out at 1.01.

For the sequence GACCCGGCAC, the switch fluorescence ratio was found to be 1.09.

With GAGTGGCACT, the switch fluorescence ratio was found to be 0.964.

Take CGGGGCGTGA: the switch fluorescence ratio stood at 1.05.

With TAGATGCGGA, the switch fluorescence ratio worked out at 1.02.

For the sequence GTTTGGCGGG, the switch fluorescence ratio turned out to be 1.02.

On to GAGATTGGG, for which the switch fluorescence ratio was found to be 0.996.

Regarding TATCAGTGCT, the switch fluorescence ratio was found to be 1.

Consider ACATTTGAGA, for which the switch fluorescence ratio worked out at 0.956.

As for ATAGAGGTCT, the switch fluorescence ratio was found to be 1.01.

As for CGGATCGCCG, the switch fluorescence ratio stood at 0.895.

For GTCCAAGACC, the switch fluorescence ratio was 1.09.

Consider GATTGCATCT, for which the switch fluorescence ratio was 1.02.

Consider GCTGGCATTA, for which the switch fluorescence ratio amounted to 0.984.

For the sequence TTGGCCAAGT, the switch fluorescence ratio came to 0.98.

As to TAGTTTAAAC, the switch fluorescence ratio came out at 1.01.

As for GCGAGCTTTT, the switch fluorescence ratio stood at 1.04.

In the case of AATGTAACGA, the switch fluorescence ratio was 1.05.

GAAAGACCCG: the switch fluorescence ratio is 1.11.

In the case of CCGAATAATG, the switch fluorescence ratio was found to be 1.08.

Regarding CGTAGCCTCG, the switch fluorescence ratio came to 0.98.

TATTGGCATG: the switch fluorescence ratio is 1.02.

For the sequence AAATTAGCGT, the switch fluorescence ratio was 0.945.

For the sequence GGTTGCAGTG, the switch fluorescence ratio was found to be 1.07.

As for AGTAACCCGT, the switch fluorescence ratio came to 0.952.

On to TAAGGCTTCA, for which the switch fluorescence ratio was determined as 1.1.

Take ATATAAGCTC: the switch fluorescence ratio came out at 1.01.

As to ACATTATCTG, the switch fluorescence ratio was 1.11.

Consider CGTGCATCTA, for which the switch fluorescence ratio was determined as 0.999.

TGATTTGAGT: the switch fluorescence ratio was determined as 1.03.

With CTGTTAAGGA, the switch fluorescence ratio was 1.02.

For the sequence TAGAGTCATG, the switch fluorescence ratio was 1.

As to CAAAGACGAC, the switch fluorescence ratio stood at 1.2.

Regarding GTCGCCGTTT, the switch fluorescence ratio turned out to be 0.973.

With CCCAGATGAG, the switch fluorescence ratio is 1.09.

For AAAGTACCTG, the switch fluorescence ratio stood at 1.16.

Consider GTTTATAATT, for which the switch fluorescence ratio came out at 0.951.

Take CACTGAGGTT: the switch fluorescence ratio was 1.04.

On to TTGGAGGGA, for which the switch fluorescence ratio worked out at 1.03.

In the case of CCCTTTTTAC, the switch fluorescence ratio worked out at 1.

For AGACGTTAC, the switch fluorescence ratio was determined as 1.8.

GAACCGTTTA: the switch fluorescence ratio was found to be 1.

Take TTAGTTACTT: the switch fluorescence ratio amounted to 1.05.

Take GTTTTCCTAT: the switch fluorescence ratio was 1.02.

With ATGATTCTTA, the switch fluorescence ratio was 1.03.

TAGGCATAGC: the switch fluorescence ratio came to 1.01.

Take TTGAGGAGG: the switch fluorescence ratio stood at 0.979.

Take CTTATCATCC: the switch fluorescence ratio is 1.03.

For ACGTTACGG, the switch fluorescence ratio worked out at 1.62.

For CTTTGCCAC, the switch fluorescence ratio was 1.12.

As for AGTGCTACTT, the switch fluorescence ratio is 1.03.

Regarding TCATAGCTAG, the switch fluorescence ratio amounted to 1.03.

As to ACTAGATGGT, the switch fluorescence ratio stood at 0.969.

Take AATATCGAA: the switch fluorescence ratio is 0.934.

Turning to GTGGGGAGAA, the switch fluorescence ratio came out at 0.965.

As for TATGAATGAA, the switch fluorescence ratio was found to be 1.02.

Turning to TCTGAGGGGT, the switch fluorescence ratio was 1.02.

Consider CAATACTAGT, for which the switch fluorescence ratio was determined as 1.02.

GATCTTGTCG: the switch fluorescence ratio was 1.01.

In the case of TATTCCTCGG, the switch fluorescence ratio turned out to be 1.37.

As for AAACGCAGG, the switch fluorescence ratio is 0.972.

Turning to TCTTTTTTAA, the switch fluorescence ratio came out at 1.06.

On to CTTCGGTTGG, for which the switch fluorescence ratio is 0.962.

Regarding AGTATGACTC, the switch fluorescence ratio came to 1.03.

On to CTTCCCCCCT, for which the switch fluorescence ratio stood at 1.34.

In the case of CTATAAAGGG, the switch fluorescence ratio came to 0.961.

Take TTTGCTACAT: the switch fluorescence ratio amounted to 0.998.

Turning to TACGATTAGA, the switch fluorescence ratio was 1.08.

Regarding GCGGTCACCT, the switch fluorescence ratio was 1.13.

As to GTGGTATCGC, the switch fluorescence ratio was 1.

Regarding AAAACGTAA, the switch fluorescence ratio came to 1.09.

For AACGTGTATG, the switch fluorescence ratio amounted to 1.01.

For the sequence ATAGTGTCCG, the switch fluorescence ratio stood at 1.1.

CAGTTCGGGC: the switch fluorescence ratio was 0.98.

As to AGGCCGAGGT, the switch fluorescence ratio worked out at 0.97.

With TGCAGGTGAC, the switch fluorescence ratio worked out at 1.48.

Regarding AAACTTGATA, the switch fluorescence ratio turned out to be 1.01.

For the sequence TTTCGTTTAT, the switch fluorescence ratio amounted to 0.977.

Consider AGGGTTAAGA, for which the switch fluorescence ratio turned out to be 0.996.

Take TGAATAAACT: the switch fluorescence ratio worked out at 1.02.

As for ATACGAGTAT, the switch fluorescence ratio was found to be 1.04.

Take GCGTATATAG: the switch fluorescence ratio was 1.01.

On to GATGGCTCAT, for which the switch fluorescence ratio amounted to 1.07.

As to TGCGTCCGT, the switch fluorescence ratio was determined as 1.07.

ATTCCTGGCT: the switch fluorescence ratio was determined as 1.05.

As for GTTGGGTGAC, the switch fluorescence ratio amounted to 1.05.

Take GTTAAGACAG: the switch fluorescence ratio worked out at 0.984.

As to CATGGTGTTC, the switch fluorescence ratio is 0.988.

For ATGGTCAATT, the switch fluorescence ratio turned out to be 0.949.

TTGGGTCGGT: the switch fluorescence ratio was found to be 0.99.

On to ACATCGATTT, for which the switch fluorescence ratio was determined as 1.

Regarding ACAAGGAGCC, the switch fluorescence ratio was determined as 1.05.

As to GAAATAGAA, the switch fluorescence ratio was 0.977.

Regarding ATTGTTAAGG, the switch fluorescence ratio amounted to 1.02.
